Measured values taken from the RNAGym collection of RNA variant scans (doi:10.1093/nar/gkz1192).
Read counts are not given, so values of variants with three or more changes are uncertain.

B1: CPEB3 Ribozyme (parent)
chain: UAACAGGGGGCCACAGCAGAAGCGUUCACGUCGCAGCCCCUGUCAGAUUCUGGUGAAUCUGCGAAUUCUGCUGUAUAUCUC

Variants of: B1
Assay: self-cleavage, relative activity (ratio to wild type); higher = more cleavage; in vitro, sequencing
How it was run: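 Relative activity was defined as the cleaved/total read fraction for a variant divided by the same fraction for the unmutated ribozyme. CPEB3 self-cleaving ribozyme libraries were made by rounds of error-prone PCR, barcoded, and transcribed in vitro with T7 RNA polymerase for 5 hours at 37°C, and cleavage ran through transcription plus a 15 min DNase I step before EDTA. Illumina sequencing of template-switched reverse transcripts gave the reads, and DNA sequencing mapped the barcodes. Averages come from three batches, using variants with at least 5 reads.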

Variant | self-cleavage
UAACAGGGGGCCACAGCAGAAGCGUUCACGACGCAGCCCCUGUCUGAUUCUGGUGAAUCUGCUAAUUCUGCUGUAUAUCUC [U31A A45U G63U] | 0.59
UAACAGGGGGCCACAGCAGAAGCGUUCACGACGCAGCCCCUGUCCGAUUCUGGUGGAUCUGCGAAUCCUGCUGUAUAUCUC [U31A A45C A56G U67C] | 0.11
UAACAGGGGGCCACAGCAGAAGCGUUCACGACGCUGCCCCUGUCAGAUUCAGGUGGAUCCGCGAAUUCUGCUGUAUAUCUC [U31A A35U U51A A56G U60C] | 0.06
UAACAGGGGGCCACAGCAGAAGCGUUCACUACGCAGCCCCUGUCAGGUUCUGGUGAAUCUGCGAAUUCUGCUGUAUAUCUC [G30U U31A A47G] | 0.33
UAACAGGGGGCCACAGCAGAAGCGUUCACUCCGCAGCCCCUGUCAGAUUCUGGGGAAUCUGCGAAUUCAGCUGUAUAUCUC [G30U U31C U54G U69A] | 0.19
UAACAGGGGGCCACAGCAGAAGCGUUCACUUCGCAGCCCCAGUCAGAUUCUGGAGAACCUGCGAACUCUGCUGUAUAUCUC [G30U U41A U54A U58C U66C] | 0.14
UAACAGGGGGCCACAGCAGAAGCGUUCACGACGCAGCCCCUGUCUGAUCCUGGUGAAUCUGCGAGUUCUGCUGUAUAUCUC [U31A A45U U49C A65G] | 0.15
UAACAGGGGGCCACAGCAGAAGCGUUCACGACGCAGCCCCUGUCAGAUUCUGGUGUAUCAGCGAAUUCUGCUGUAUAUCUC [U31A A56U U60A] | 0.15
UAACAGGGGGCCACAGCAGAAGCGUUCACUUCGCAGCCCCUGUCAGAUUCUGGUGAAUCCGCAAAUUCUGCUGUAUAUCUC [G30U U60C G63A] | 0.2
UAACAGGGGGCCACAGCAGAAGCGUUCACGACGCAGCCCCUGUCGGAUUCUGGUGAACCUGCGAAUUCUGCUGUAUAUCUC [U31A A45G U58C] | 0.08
UAACAGGGGGCCACAGCAGAAGCGUUCACGACGCGGCCCCUGUCAGAUUCUGGUGAAUCUGCGAAUUCCGCUGUUUAUCUC [U31A A35G U69C A75U] | 1
UAACAGGGGGCCACAGCAGAAGCGUUCACUUCGCAGCCCCUGUCAGAUUCUGGUGAAUCUGCGAACUCUGCCGUAUAUCUC [G30U U66C U72C] | 0.13
UAACAGGGGGCCACAGCAGAAGCGUUCACUUCGCAGCCCCUGUCAGAUUCCGGUGAAUCUGCGAAUUCUGCUGUGAAUCUC [G30U U51C A75G U76A] | 0.1
UAACAGGGGGCCACAGCAGAAGCGUUCACGACGCAGCCCCUGUCAGAUUCUGGUGUAUCUGCGAAUUCUGCUGUAUACCUC [U31A A56U U78C] | 0.19
UAACAGGGGGCCACAGCAGAAGCGUUCACGACGCAGCCCCUGUCUGAUUCUGUUGAAUCUGCGAAUUCUGCUGUAUAUCCC [U31A A45U G53U U80C] | 0.38
UAACAGGGGGCCACAGCAGAAGCGUUCACGACGCAGCCCCUGUCAGAUUCUGGUGAGUCAGCGGAUUCAGCUGUAUAUCUC [U31A A57G U60A A64G U69A] | 0.17
UAACAGGGGGCCACAGCAGAAGCGUUCACUACGCUGCCCCUGCCAGAUUCUGGUGAAUCUGCGAAUUCUGCUGUAUAUCAC [G30U U31A A35U U43C U80A] | 0.17

Variant | self-cleavage
UAACAGGGGGCCACAGCAGAAGCGUUCACGACGCGGCCCCUGUCAGAUUCUGGUGAAUCUGCGAAUUCUGCUCUAUAUCUC [U31A A35G G73C] | 1.28
UAACAGGGGGCCACAGCAGAAGCGUUCACGACGCAGCCCCUGUCAGAUUCUGGUGGAUCUGCGAAUUCUGCUGUAGACCUC [U31A A56G U76G U78C] | 0.23
UAACAGGGGGCCACAGCAGAAGCGUUCACGACGCAGCCCCUGUCGGAUUCUGAUGAAUCUGCGAAUUCUGCUGUAUAUCUC [U31A A45G G53A] | 0.36
UAACAGGGGGCCACAGCAGAAGCGUUCACGACGCAGCCCCUGUCAGAUUCUGGUGAAUCUGCGGAUUCUGAUGUAUAUCUC [U31A A64G C71A] | 0.13
UAACAGGGGGCCACAGCAGAAGCGUUCACGACGCAGCCCCUGUCUGACUCUGGUGAAUCUGCGGAUUCUGCUGUAUAUCUC [U31A A45U U48C A64G] | 0.14
UAACAGGGGGCCACAGCAGAAGCGUUCACGACGCAGCCCCUGUCUGAUUCUGGUGAAUCUGCGAAUUCUGCUGUAUAUCCC [U31A A45U U80C] | 0.62
UAACAGGGGGCCACAGCAGAAGCGUUCACGACGCAGCCCCUGUCAGGUUCAGGUGAAUCUGCGAAUUCUGCUGUAUAUCUC [U31A A47G U51A] | 0.68
UAACAGGGGGCCACAGCAGAAGCGUUCACGACGCAGCCCCUGUCUGAUUCUGGUGAAUCUGCGAAUUCUGCCGUAUAUCUC [U31A A45U U72C] | 0.27
UAACAGGGGGCCACAGCAGAAGCGUUCACGACGCAGCCCCUGUCAGAUUCUGGUGGAUCUGCGAAUUCUGCUGUAUACCUC [U31A A56G U78C] | 0.33
UAACAGGGGGCCACAGCAGAAGCGUUCACGACGCAGCCCCUGUCGGAUUCUGGUGAAUCUGCGAAUUCUGCAGUACAUCUC [U31A A45G U72A U76C] | 0.22
UAACAGGGGGCCACAGCAGAAGCGUUCACGACGCCGCCCCUGUCAGACUCUGGUGAAUCUGCGAAUUCUGCUGUAUAUCUC [U31A A35C U48C] | 0.17
UAACAGGGGGCCACAGCAGAAGCGUUCACUUCGCAGCCCCCGUCAGAUUCUGGUGAAUCUGCGAAUUCUGCUGUGUACCUC [G30U U41C A75G U78C] | 0.11
UAACAGGGGGCCACAGCAGAAGCGUUCACGACGCAGCCCCUGUCAGGUUCUGGUGAAUCUGCGAAUUCUGCCGUAUAUCUC [U31A A47G U72C] | 0.42
UAACAGGGGGCCACAGCAGAAGCGUUCACGACGCUGCCCCUGCCAGAUUCUGGUGAAUCUGCGAAAUCUGCUGCAUAUCUC [U31A A35U U43C U66A U74C] | 0.09
UAACAGGGGGCCACAGCAGAAGCGUUCACGACGCAGCCCCUGUCAGGUUCUGGUGAAUCUGCGAAUUCUGCGGUAUAUCCC [U31A A47G U72G U80C] | 0.91
UAACAGGGGGCCACAGCAGAAGCGUUCACGACGCCGCCCCUGUCAGAUUCUGGUGAAUCUGCGAAUUCUGCAGUAUCUCUC [U31A A35C U72A A77C] | 0.16
UAACAGGGGGCCACAGCAGAAGCGUUCACUUCGCAGCCCCCGUCAGAUUCCGGAGAAUCUGCGAAUUCUGCUGUAUAUCUC [G30U U41C U51C U54A] | 0.09
